From PubChem BioAssay AID2202238 (Ras Initiative Chemistry Research Team, Frederick National …, 2025) come the findings set out here.

This is one part of the list. These are further read-outs of the screen, such as a control signal, another cell line or another target. No call is given for them.

The experiment has as its target GTPase KRas (Homo sapiens) (UniProt P01116). In words: Covalent labelling of cysteine mutants by fragments, read by mass spectrometry (AID 2202238). As to conditions: KRAS G12D cysteine mutants, disulfide tethering, MALDI-TOF labeling, stronger effect = higher value, fragment at 500 µM. Also on record: protein at 5 µM with 500 µM competing thiol for 1.5 h.
The mark [1] stands for this setting: measured here: G60C mutant labeling.
Where [2] appears, read: measured here: G75C mutant labeling.
Where [3] appears, read: measured here: H94C mutant labeling.
Where [4] appears, read: measured here: I36C mutant labeling.
[5] abbreviates: measured here: L120C mutant labeling.
[6] abbreviates: measured here: M67C mutant labeling.
The mark [7] stands for this setting: measured here: M72C mutant labeling.
The mark [8] stands for this setting: measured here: N26C mutant labeling.
Setting [9] is: measured here: N86C mutant labeling.
Where [10] appears, read: measured here: P121C mutant labeling.
Where [11] appears, read: measured here: S122C mutant labeling.
[12] abbreviates: measured here: S136C mutant labeling.

UniProt P01116, sequence (P01116 whole entry, looked up, the tested form may be a part): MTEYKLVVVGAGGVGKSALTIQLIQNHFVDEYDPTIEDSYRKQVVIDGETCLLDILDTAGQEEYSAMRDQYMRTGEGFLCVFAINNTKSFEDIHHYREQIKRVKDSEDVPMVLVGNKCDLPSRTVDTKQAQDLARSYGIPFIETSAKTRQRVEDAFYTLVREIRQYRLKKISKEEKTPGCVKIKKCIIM

For the molecule `Cc1nn(C)c(C)c1[C@@H]1OCC[C@H]1C(=O)NCCS`, the percent labeling under setting [1] was 22%; the percent labeling under setting [2] was 5.2%; the percent labeling under setting [3] was 24.6%; the percent labeling under setting [4] came out at 24.4%; the percent labeling under setting [5] is 23.1%; the percent labeling under setting [6] was determined as 28.6%. The percent labeling reads like this: under setting [7], 6.7%; under setting [8], 28.3%; under setting [9], 17.4%; under setting [10], 28.8%; under setting [11], 23.9%; under setting [12], 31.1%.
Consider `O=C(CCS)NCc1cn2cc(Cl)ccc2n1`, for which the percent labeling amounted to 14.7% under setting [2]; 26.2% under setting [3]; 38.8% under setting [4]; 32.5% under setting [5]; 33.8% under setting [6]; 30% under setting [7]. Further, the percent labeling runs as follows: under setting [9], 15.4%; under setting [10], 28.5%; under setting [11], 25.1%; under setting [12], 50.1%.
`O=C(Cc1c[nH]c2cnccc12)NCCS`: the percent labeling runs as follows: under setting [1], 47.5%; under setting [2], 23%; under setting [3], 37.9%; under setting [4], 38%; under setting [5], 31.9%; under setting [6], 46.1%. Also, the percent labeling came to 32.6% under setting [7]; 43% under setting [8]; 30.8% under setting [9]; 29.5% under setting [10]; 35.4% under setting [11]; 49.6% under setting [12].
For the molecule `Cn1c(=O)[nH]c(=O)c2[nH]c(CCC(=O)NCCS)nc21`, the percent labeling by setting is: under setting [1], 31.1%; under setting [2], 12.8%; under setting [3], 27.7%; under setting [4], 32.5%; under setting [5], 29.8%; under setting [6], 31%. Further, the percent labeling stood at 17.5% under setting [7]; 40.1% under setting [8]; 26.8% under setting [9]; 32.6% under setting [10]; 28% under setting [11]; 37% under setting [12].
In the case of `O=C(NCCS)c1nc[nH]c1C(F)(F)F`, the percent labeling is, setting by setting: under setting [1], 32%; under setting [2], 19.3%; under setting [3], 38.2%; under setting [4], 24.7%; under setting [5], 40.9%; under setting [6], 30.3%. Besides, the percent labeling came to 27.6% under setting [7]; 40.3% under setting [8]; 45.7% under setting [9]; 31.3% under setting [10]; 35.6% under setting [11]; 38.9% under setting [12].
On to `O=C(NCCS)c1cn2c(Br)cnc2s1`, for which the percent labeling was 37.3% under setting [1]; 19.2% under setting [2]; 25.3% under setting [3]; 23.4% under setting [4]; 18.8% under setting [5]; 22.5% under setting [6]. The same molecule displayed a percent labeling under setting [7] of 48%; a percent labeling under setting [8] of 35.6%; a percent labeling under setting [9] of 19.2%; a percent labeling under setting [10] of 18.2%; a percent labeling under setting [11] of 16.5%; a percent labeling under setting [12] of 34.7%.
On to `O=C(CCS)N(CCn1ccnc1)Cc1ccsc1`, for which the percent labeling is, setting by setting: under setting [2], 15.9%; under setting [3], 44.8%; under setting [4], 46.4%; under setting [5], 34.4%; under setting [6], 48.6%; under setting [7], 38.3%. The percent labeling was found to be 42.8% under setting [9], 36% under setting [10], 37.1% under setting [11] and 62.1% under setting [12].
On to `N#Cc1cccnc1N1CCCN(C(=O)CCS)CC1`, for which the percent labeling stood at 15.3% under setting [2]; 39.5% under setting [3]; 52.2% under setting [4]; 37% under setting [5]; 48.8% under setting [6]; 45.1% under setting [7]. The percent labeling under setting [9] was found to be 32.2%, the percent labeling under setting [10] was found to be 41.1%, the percent labeling under setting [11] is 40.7% and the percent labeling under setting [12] stood at 69%.
Molecule `O=C(CC(c1ccccc1)c1ncc[nH]1)NCCS` (stereo not given) gave a percent labeling under setting [1] of 39%; a percent labeling under setting [2] of 11.7%; a percent labeling under setting [3] of 31.4%; a percent labeling under setting [4] of 29.2%; a percent labeling under setting [5] of 30.7%; a percent labeling under setting [6] of 34%. Further, the percent labeling stood at 21.2% under setting [7]; 34.8% under setting [8]; 28.2% under setting [9]; 32.2% under setting [10]; 26.4% under setting [11]; 48.8% under setting [12].
`O=C(NCCS)C1CC1c1c(F)cccc1F` (stereo not given) had a percent labeling under setting [1] of 47.3%; a percent labeling under setting [2] of 19.4%; a percent labeling under setting [3] of 27.2%; a percent labeling under setting [4] of 17.3%; a percent labeling under setting [5] of 26.1%; a percent labeling under setting [6] of 53.7%. In addition, the percent labeling was 40.5% under setting [7]; 31.9% under setting [8]; 9% under setting [9]; 34.2% under setting [10]; 16.5% under setting [11]; 40.4% under setting [12].
On to `Cc1ccc(-c2ccncc2)cc1NC(=O)CCS`, for which the percent labeling by setting is: under setting [2], 24.7%; under setting [3], 31.6%; under setting [4], 22.9%; under setting [5], 20.1%; under setting [6], 28.2%; under setting [7], 31.1%. The percent labeling runs as follows: under setting [9], 14.2%; under setting [10], 23%; under setting [11], 17.3%; under setting [12], 34.7%.
The molecule `O=C(CCS)NC1CC(c2ccccc2F)C1` (stereo not given) yielded a percent labeling under setting [2] of 18.1%; a percent labeling under setting [3] of 29.5%; a percent labeling under setting [4] of 25.5%; a percent labeling under setting [5] of 21.1%; a percent labeling under setting [6] of 30.6%; a percent labeling under setting [7] of 46.4%. For the same molecule, the percent labeling is, setting by setting: under setting [9], 24.9%; under setting [10], 28%; under setting [11], 22.5%; under setting [12], 50.2%.
Turning to `O=C(CCNC(=O)NC1CCCCC1)NCCS`, the percent labeling reads like this: under setting [1], 26.1%; under setting [2], 14.1%; under setting [3], 31.1%; under setting [4], 24.1%; under setting [5], 42.5%; under setting [6], 25.2%. This molecule also had a percent labeling under setting [7] of 24.2%; a percent labeling under setting [8] of 38.7%; a percent labeling under setting [9] of 26.4%; a percent labeling under setting [10] of 33.1%; a percent labeling under setting [11] of 31.6%; a percent labeling under setting [12] of 39.4%.
Turning to `Cc1noc(C)c1CN(C(=O)CCS)C1CC1`, the percent labeling reads like this: under setting [2], 18.3%; under setting [3], 41.5%; under setting [4], 39.2%; under setting [5], 30.8%; under setting [6], 46.2%; under setting [7], 45.7%. For the same molecule, the percent labeling by setting is: under setting [9], 32.6%; under setting [10], 36.7%; under setting [11], 41%; under setting [12], 59.4%.
`Cc1c(C(=O)NCCS)cccc1-c1ccccn1`: the percent labeling is, setting by setting: under setting [1], 40%; under setting [2], 14%; under setting [3], 35.3%; under setting [4], 23.7%; under setting [5], 31%; under setting [6], 37.3%. In addition, the percent labeling by setting is: under setting [7], 30.7%; under setting [8], 44.3%; under setting [9], 28.3%; under setting [10], 40%; under setting [11], 27%; under setting [12], 46.2%.
Turning to `Cc1[nH]c(=O)c(C#N)c(C)c1CCC(=O)NCCS`, the percent labeling runs as follows: under setting [1], 38.7%; under setting [2], 14.5%; under setting [3], 31.2%; under setting [4], 34.2%; under setting [5], 31.5%; under setting [6], 36.9%. The percent labeling reads like this: under setting [7], 18.7%; under setting [8], 37.8%; under setting [9], 25.7%; under setting [10], 34%; under setting [11], 31.2%; under setting [12], 44.1%.
Take `O=C(NCCS)c1c(F)ccc(C(F)(F)F)c1F`: the percent labeling is, setting by setting: under setting [1], 37.7%; under setting [2], 14.6%; under setting [3], 25.8%; under setting [4], 17.3%; under setting [5], 29.3%; under setting [6], 21%. For the same molecule, the percent labeling under setting [7] is 44.7%; the percent labeling under setting [8] was found to be 30.1%; the percent labeling under setting [9] is 25.6%; the percent labeling under setting [10] turned out to be 23.9%; the percent labeling under setting [11] came to 21.6%; the percent labeling under setting [12] came out at 26.6%.
Take `CC1(C)CN(C(=O)CCS)Cc2ccccc2O1`: the percent labeling is, setting by setting: under setting [2], 19.1%; under setting [3], 39.9%; under setting [4], 29.3%; under setting [5], 29.7%; under setting [6], 34%; under setting [7], 58%. Also, the percent labeling runs as follows: under setting [9], 21.8%; under setting [10], 32.8%; under setting [11], 35.4%; under setting [12], 70.6%.
The molecule `CC(=O)NC(Cc1c[nH]c2cc(F)ccc12)C(=O)NCCS` (stereo not given) displayed a percent labeling under setting [1] of 49.3%; a percent labeling under setting [2] of 20%; a percent labeling under setting [3] of 36.5%; a percent labeling under setting [4] of 32.7%; a percent labeling under setting [5] of 32.4%; a percent labeling under setting [6] of 64.9%. Also, the percent labeling came out at 58% under setting [7]; 45% under setting [8]; 31.8% under setting [9]; 31% under setting [10]; 27% under setting [11]; 36.3% under setting [12].
As for `Cn1cc(-c2ncccc2C(=O)NCCS)cn1`, the percent labeling worked out at 22.3% under setting [1]; 8.5% under setting [2]; 29.7% under setting [3]; 21.7% under setting [4]; 24.5% under setting [5]; 30.5% under setting [6]. For the same molecule, the percent labeling was 9.9% under setting [7]; 32.6% under setting [8]; 20.3% under setting [9]; 30.5% under setting [10]; 25.4% under setting [11]; 36.9% under setting [12].
Take `Cc1c(CC(=O)NCCS)nnn1-c1ccccc1`: the percent labeling is, setting by setting: under setting [1], 40.7%; under setting [2], 16.9%; under setting [3], 34.8%; under setting [4], 29.1%; under setting [5], 51.1%; under setting [6], 42.9%. Moreover, the percent labeling turned out to be 42.8% under setting [7]; 40.1% under setting [8]; 26.6% under setting [9]; 35.4% under setting [10]; 37.5% under setting [11]; 47.7% under setting [12].
In the case of `O=C(NCCS)c1cn(-c2ccc(Br)cc2)cn1`, the percent labeling reads like this: under setting [1], 9.6%; under setting [2], 6.4%; under setting [3], 9.4%; under setting [4], 7.6%; under setting [5], 8.9%; under setting [6], 7.5%. In addition, the percent labeling came to 58.6% under setting [7]; 22.7% under setting [8]; 6.5% under setting [9]; 6.8% under setting [10]; 5.1% under setting [11]; 9.9% under setting [12].
Molecule `O=C(CCS)Nc1ccc(N2CCOCC2)cc1Cl` came in with a percent labeling under setting [2] of 9.9%; a percent labeling under setting [3] of 33.1%; a percent labeling under setting [4] of 39.2%; a percent labeling under setting [5] of 24.9%; a percent labeling under setting [6] of 32.3%; a percent labeling under setting [7] of 35.8%. In addition, the percent labeling by setting is: under setting [9], 17.3%; under setting [10], 25.4%; under setting [11], 23.2%; under setting [12], 44.6%.
